According to PubChem BioAssay AID463173 (ICCB-Longwood Screening Facility, Harvard Medical School, 2010):
Screen size: about 52,000 compounds; about 4,300 (8.3%) were called active. No stated cut-off is given here; in the data, active means survival mostly below about 52% (no sharp cut-off); inactive means mostly above about 56%. Some of the results follow.

These compounds were tested on DeltatarO mutant (assay: growth inhibition of S. aureus wild type versus tarO mutant, primary screen, teichoic acid synthesis inhibitors, RN4220, OD600 (AID 463173)). Conditions: OD600, 18 h, active compounds read low, screened at 18.75 µg/mL (by protocol).
In the case of `O=C(Nc1nccs1)c1ccc(S(=O)(=O)NCC2CCCCC2)cc1`, the survival is reported as inactive: 52%.
In the case of `Nc1cc(N)nc(SCC(=O)N2CCc3ccccc32)n1`, the survival is reported as inactive: 62%.
For `CCCOc1ccc(-c2nonc2NC(=O)c2ccco2)cc1OCCC`, the survival was inactive: 111%.
For `CC1CCN(C(=O)c2cc3c(=O)n(C)c4cc(Cl)ccc4c3s2)CC1`, the survival was inactive: 125%.
`Cc1nc(-c2ccc(S(=O)(=O)N3CCN(c4cccc(C(F)(F)F)c4)CC3)cc2)co1` was tested, and the survival was inactive: 67%.
In the case of `CCOc1cc(/C=C2\SC(=NC)N(C)C2=O)c(Br)cc1OC(C)=O`, the survival is reported as inactive: 55%.
For `Cc1cc(Br)cc(C)c1NC(=O)c1sc2ncn(Cc3cccc(F)c3)c(=O)c2c1C`, the survival was inactive: 91%.
With `Cc1ccc(S(=O)(=O)c2nnn3c2nc(NC2CCCCCC2)c2sccc23)cc1C` the survival was active: -4%.
For `CCCOc1cccc(C2c3c(oc4ccc(F)cc4c3=O)C(=O)N2CCCN2CCOCC2)c1` (stereo not given), the survival was inactive: 80%.
`Cc1ccc(CN(Cc2ccco2)C(=O)c2ccccc2Br)o1` was tested, and the survival was inactive: 47%.
In the case of `COc1ccc(-c2cn3c(n2)sc2cc(C(=O)NCCC4=CCCCC4)ccc23)cc1`, the survival is reported as inactive: 58%.
With `O=c1c2cnn(-c3ccc(F)cc3)c2ncn1Cc1ccccc1Cl` the survival was inactive: 100%.
In the case of `Cc1cc(C)n(CCc2nc3c4ccccc4nc(SCc4ccc(F)cc4)n3n2)n1`, the survival is reported as inactive: 78%.
For `Cc1ccc(CNC(=O)c2c[nH]c3ccc(S(=O)(=O)N4CCOCC4)cc3c2=O)cc1`, the survival was inactive: 89%.
For `CCOc1ccc(-c2nnn(CCC#N)n2)cc1OC`, the survival was inactive: 96%.
With `CCNC(=O)c1ccc(C)c(-n2c(C)nc3cccnc32)c1` the survival was inactive: 89%.
In the case of `Cc1ccc(NC(=O)Cn2c(=O)c3ccc(Cl)cc3n3nncc23)cc1`, the survival is reported as inactive: 89%.
`COc1cccc(-c2csc(-c3c(N)c(C(=O)c4ccc5c(c4)OCO5)n4ccccc34)n2)c1` was tested, and the survival was inactive: 70%.
For `CCOc1ccc(C2C(C(=O)Nc3ccccc3)=C(C)Nc3nc(-c4ccccc4)nn32)cc1OC` (stereo not given), the survival was inactive: 90%.
`CCCNC(=O)c1ccc(N2C(=O)c3ccccc3C2=O)cc1` was tested, and the survival was inactive: 80%.
`O=C(Cn1c(-c2cccs2)cc2ccccc21)N1CCN(c2ccc(Cl)cc2)CC1` was tested, and the survival was inactive: 80%.
In the case of `COc1cc(Cl)c(C)cc1NC(=O)c1cc(S(=O)(=O)N2CCCC2)ccc1F`, the survival is reported as active: 37%.
For `Cc1ccc(Cc2cnc(NC(=O)c3ccc4c(c3)CC(c3ccccc3)OC4=O)s2)cc1` (stereo not given), the survival was inactive: 107%.
`O=C(NC1CC(=O)N(c2ccc(F)cc2)C1)C1CCCC1` (stereo not given) was tested, and the survival was inactive: 76%.
For `Cc1c(C(=O)Nc2ccc(F)cc2F)oc2c1-c1nn(Cc3c(F)cccc3Cl)cc1CC2`, the survival was inactive: 73%.
`CCOC(=O)c1c(NC(=O)c2ccc(C)cc2)sc2c1CCCCC2` was tested, and the survival was active: -2%.
`COc1ccc(C)cc1NC(c1nnc(-c2ccccc2)o1)c1ccc(F)cc1Cl` (stereo not given) was tested, and the survival was active: -3%.
With `CC(=O)c1ccc(S(=O)(=O)Nc2ccc(-c3cn4c(C)csc4n3)cc2)cc1` the survival was active: -5%.
In the case of `N#Cc1ccccc1NC(=O)CSc1nc(-c2ccccc2)cc(C(F)(F)F)c1C#N`, the survival is reported as inactive: 57%.
For `Nn1c(-c2ccccc2)cn2c(cc3sccc32)c1=S`, the survival was inactive: 99%.
`CCc1ccc(N2CC(c3nnc(NC(=O)c4ccco4)s3)CC2=O)cc1` (stereo not given) was tested, and the survival was inactive: 84%.
`CCOC(=O)Cc1ccc(NC(=O)N(Cc2ccc(OC)cc2)C2CCN(C(C)=O)CC2)cc1` was tested, and the survival was inactive: 88%.
With `Nc1cc(N)nc(SCc2ccc(Cl)cc2)n1` the survival was inactive: 84%.
With `CCOC(=O)c1c(NC(=O)/C(C#N)=C/c2ccc(OC)cc2)sc2c1CCC2` the survival was inactive: 86%.
For `CC1(C)Cc2c(c(N3CCNCC3)[nH]c(=S)c2C#N)CO1`, the survival was inactive: 114%.
For `Cc1cccc(C)c1OCC(=O)N(Cc1ccccc1F)C1CCS(=O)(=O)C1` (stereo not given), the survival was inactive: 59%.
For `CCc1ccc(NC(=O)c2sc(-n3nc(C)c(CCC(C)C)c3C)nc2C)cc1`, the survival was inactive: 112%.
With `COc1ccc(NC(=O)c2ccc3oc(=O)c(S(=O)(=O)c4ccc(F)cc4)cc3c2)cc1OC` the survival was inactive: 62%.
In the case of `Cc1cc(NC(=O)c2ccccc2F)ccc1-c1nc2ccccc2s1`, the survival is reported as inactive: 74%.
In the case of `Cc1ccc(-n2cnc3cc(C(=O)NCCC4=CCCCC4)ccc32)c(C)c1`, the survival is reported as inactive: 69%.
For `COC(=O)c1ccc(S(N)(=O)=O)o1`, the survival was inactive: 76%.
`CC1CCN(c2nc(-c3ccc(C(C)(C)C)cc3)nc3ccccc23)CC1` was tested, and the survival was active: 6%.
In the case of `O=C(CSc1nc2ccsc2c(=O)n1-c1ccc(Cl)cc1)NCc1ccc(Cl)cc1`, the survival is reported as inactive: 91%.
`CCOc1ccc(NC(=O)c2cc3cc(C)ccc3n2C)cc1` was tested, and the survival was inactive: 61%.
For `CC(C)CNC(=O)Nc1cc(C(=O)NCc2ccc(C(C)C)cc2)ccc1N1CCCC1`, the survival was inactive: 86%.
In the case of `CCC(=O)N1CCc2cc(S(=O)(=O)NCCC(=O)Nc3ccc(CC)cc3)ccc21`, the survival is reported as inactive: 78%.
With `COC(=O)C1(c2ccccc2)NC(c2ccc(O)cc2)C2C(=O)N(c3ccc4c(c3)OCCO4)C(=O)C21` (stereo not given) the survival was inactive: 75%.
`CCN1C(=O)C(C(=O)NC(C)c2ccccc2)C2CC1(C)Oc1ccccc12` (stereo not given) was tested, and the survival was inactive: 72%.
With `Clc1ccc(-c2cc3ncc4c(n3n2)-c2ccccc2OC4)cc1` the survival was inactive: 81%.
With `O=C(Nc1ccccc1-c1nc2ccccc2s1)c1ccc(F)cc1` the survival was inactive: 81%.
With `COc1ccc(CCNc2nc3c(-c4cccc(C(F)(F)F)c4)nnn3c3ccccc23)cc1OC` the survival was inactive: 85%.
With `Cc1ccc(CN2CCCn3nc(C(=O)NCc4ccc(N(C)C)cc4)cc3C2=O)cc1` the survival was inactive: 80%.
With `COc1cc(Nc2ncc3c(n2)CCN(Cc2ccc(OC(C)C)c(OC)c2)C3)cc(OC)c1` the survival was inactive: 117%.
`Cc1ccc(C(=O)Nc2nnc(S(=O)(=O)N(C)Cc3ccc(Cl)cc3)s2)cc1` was tested, and the survival was inactive: 99%.
In the case of `CCc1nn2c(=O)cc(COC(=O)c3ccc(NC(=O)COc4ccccc4C)cc3)nc2s1`, the survival is reported as inactive: 79%.
In the case of `COc1ccc(NC(=O)c2csnn2)cc1Cl`, the survival is reported as inactive: 86%.
In the case of `COc1ccccc1NC(=O)CSc1oc(-c2ccco2)nc1S(=O)(=O)c1ccc(C)cc1`, the survival is reported as inactive: 66%.
`CCOc1ccc(NC(=O)c2oc3ccccc3c2NC(=O)C(C)(C)C)cc1` was tested, and the survival was active: 38%.
For `O=C(CC1N=C2c3ccccc3N=C(SCC(=O)Nc3ccc(F)cc3)N2C1=O)NCc1ccco1` (stereo not given), the survival was inactive: 75%.
In the case of `CCOc1ccc2nc(N3CCCC(C(=O)Nc4ccc(OC)cc4)C3)sc2c1` (stereo not given), the survival is reported as inactive: 60%.
In the case of `COc1cccc(CNC(=O)C2CCN(S(=O)(=O)c3c(C)noc3/C=C/c3cccs3)CC2)c1`, the survival is reported as inactive: 71%.
In the case of `O=C(NCCc1csc(-c2cccc(F)c2)n1)C(=O)Nc1cc(F)ccc1F`, the survival is reported as inactive: 84%.
In the case of `Cc1ccc(C)c(NC(=O)Cc2coc3cc(C)cc(C)c23)c1`, the survival is reported as inactive: 54%.
`O=C(c1cc2ccc3cccnc3c2[nH]1)N1CCCCC1` was tested, and the survival was inactive: 69%.
With `CCc1ccccc1NC(=O)Cn1nnc2sc3c(c2c1=O)CCC(C(C)(C)C)C3` (stereo not given) the survival was active: 47%.
With `COc1ccc(C)cc1NS(=O)(=O)c1cnc(N)nc1` the survival was inactive: 76%.
`O=C(c1noc2c1CCCCC2)N1CCN(c2cccc(Cl)c2)CC1` was tested, and the survival was inactive: 69%.
In the case of `O=C(Cn1ncc2c3ccccc3n(Cc3ccccc3F)c2c1=O)N1CCCCCC1`, the survival is reported as inactive: 70%.
In the case of `CCN1CCN(c2nnc(-n3cccc3C(=O)NCc3ccccc3OC)s2)CC1`, the survival is reported as active: 46%.
In the case of `Cc1ccc(C(C(=O)NCc2ccccc2)N(C(=O)c2snc(C(N)=O)c2N)c2ccc3c(c2)OCCO3)o1` (stereo not given), the survival is reported as inactive: 62%.
With `COc1ccc(NC(=O)C2CCN(C3=NS(=O)(=O)C(c4ccc(C)c(C)c4)=C3C)CC2)c(OC)c1` the survival was inactive: 91%.
With `Cc1ccccc1OC(=O)c1cc(-c2ccc3c(c2)OCCO3)on1` the survival was active: -1%.
In the case of `Cc1nn(Cc2ccccc2)c(C)c1CC(=O)O`, the survival is reported as inactive: 92%.
In the case of `COC(=O)C1=NNC2C(=O)N(c3ccccc3C(F)(F)F)C(=O)C12` (stereo not given), the survival is reported as inactive: 77%.
`Cc1cc(C(=O)Nc2c(C)cccc2C)n(-c2ccccc2)n1` was tested, and the survival was inactive: 95%.
For `CC(C)CCN(C(=O)Nc1ccc(Cl)c(Cl)c1)C1CCN(C(C)C)CC1`, the survival was inactive: 83%.
`O=C(OCc1cc(=O)n2nc(-c3cccs3)sc2n1)c1cccc(F)c1` was tested, and the survival was inactive: 77%.
For `COCCCNC(=O)c1ccc(Cn2c(SCc3ccc(F)cc3)nc3cccnc32)cc1`, the survival was inactive: 49%.
For `CCOC(=O)c1sc2ncn(CC(=O)Nc3cc(Cl)ccc3C)c(=O)c2c1C`, the survival was inactive: 62%.
`CCOC(=O)Nc1ccc2c(c1)N(C(=O)CN1CCOCC1)c1ccccc1CC2` was tested, and the survival was inactive: 69%.
For `CCOC(=O)c1cc2c(=O)n3ccccc3nc2n(CC2CCCO2)c1=NC(=O)c1ccccc1Br` (stereo not given), the survival was active: 47%.
In the case of `CC(=O)Nc1cccc(NC(=O)CSc2nccn2Cc2ccc3c(c2)OCO3)c1`, the survival is reported as inactive: 84%.
With `CC(=O)c1ccc(N2CCN(C(=O)c3cc(S(=O)(=O)N4CCCCCC4)cn3C)CC2)cc1` the survival was inactive: 101%.
With `Cc1ccc2c(c1)cc(C(=O)NCc1ccccc1C)n2C` the survival was inactive: 81%.
For `CCc1cnc2c(c1SCC(=O)Nc1ccc(C(=O)OC)cc1)c(=O)n(C)c(=O)n2C`, the survival was inactive: 88%.
With `CC(C)Oc1ccc(CNC(=O)C2CCN(Cc3cc4ccccc4n3Cc3ccccc3)CC2)cc1` the survival was inactive: 67%.
For `O=C(COC(=O)c1cccc(NC(=O)c2ccc(Br)cc2)c1)c1ccc(Cl)cc1`, the survival was inactive: 72%.
`CC(C)(C)c1ccc(OCCOCCn2c(-c3ccc(Cl)cc3)nc3ccccc3c2=O)cc1` was tested, and the survival was inactive: 115%.
For `O=C(O)c1ccc(C(=O)c2cc(C(=O)O)ccc2C(=O)O)cc1`, the survival was inactive: 75%.
`CCn1c2ccccc2c2cc(NC(=O)COc3cc(C)ccc3C)ccc21` was tested, and the survival was active: 29%.
